From PubChem BioAssay AID1345083 (National Center for Advancing Translational Sciences (NCATS), 2018)
The campaign covered roughly 94,000 compounds. About 6,200 (6.6%) were called active. The inconclusive results got no clear call from the source; some entries with a clear call stand among them for comparison. Calls follow the shape of the dose curve; as a rule, active = well fitted inhibition curve with a large enough effect; inconclusive = small, poorly fitted or top-dose-only effect; inactive = flat fitted curve, though single readings scatter. Potencies of inconclusive entries are doubtful fits and often do not repeat.

test: Cytotoxic Profiling in HEK 293 Cell Line of Diverse Libraries Using Quantitative High-Throughput Screening; details: HEK 293 viability, ATP luminescence (CellTiter-Glo), 48-72 h; activity change, negative = cytotoxicity: at 115 µM (top of the series) unless noted; series mostly up to 115 µM; also: nearly all actives have a fitted effect of over 60% in size
How it was run: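 250 HEK 293 cells/well; compound by pintool; incubated 48 or 72 hr at 37 degree Celsius; CellTiter-Glo added, 10 min RT, luminescence imaged.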
% is scaled to controls: 0 for no effect and ±100 for the full control effect; potency is read from the fitted curve at half-maximal effect; tags tell the direction and shape of the fitted curve.

| SMILES | Potency | activity change, negative = cytotoxicity | outcome |
| --- | --- | --- | --- |
| Cn1ncc2c(C(=O)N3CCC(c4ccccc4)CC3)cc(-c3ccc(F)cc3)nc21 | inconclusive: 50.1 µM [inhibitor, partial curve, poor fit] |  |  |
| Cc1nc(C)c(C(=O)N[C@@H]2CN(Cc3ccncc3)C[C@H]2CN(C)C)s1 |  | inactive: -20.8% |  |
| O=C(CCC1CCCCC1)N1CC2CC(C1)[C@H]1CCCC(=O)N1C2 (some centres undefined) |  | inactive: 6.89% |  |
| CC1CCC(NC(=O)c2nnn3c2COC(c2ccc(F)cc2)C3)CC1 (centres undefined) | inconclusive: 11.2 µM [inhibitor, full curve, poor fit] |  |  |
| CCC1Oc2ccc(NC(=O)Cc3cccs3)cc2CN(C2CCCc3ccccc32)C1=O (centres undefined) | inconclusive: 22.4 µM [inhibitor, full curve, poor fit] |  |  |
| COc1ccc(CC(=O)N2CCN(C(=O)c3cccc(-c4ccccn4)c3)CC2)cc1 | inconclusive: 89.1 µM [inhibitor, single point] |  |  |
| Cc1ccc2c(n1)OC(COc1ccccc1)CN(Cc1cccs1)C2=O (centres undefined) | inconclusive: 31.6 µM [inhibitor, partial curve, poor fit] |  |  |
| COc1ccccc1C(=O)NCCNC(=O)c1cccc(-c2cc(F)ccc2OC)c1 | inconclusive: 39.8 µM [inhibitor, full curve, poor fit] |  |  |
| COc1ccc(F)c(-c2nc(CN(C)C(C)c3cccs3)c(C)o2)c1 (centres undefined) | inconclusive: 50.1 µM [inhibitor, partial curve, poor fit] |  |  |
| CNC(=O)N1CCC(n2c(C)cnc2-c2ccccc2)CC1 |  | inactive: -11.3% |  |
| Cc1ccc(S(=O)(=O)NC[C@H]2O[C@@H](CO)[C@@H](O)[C@H]2N2CCN(c3ccc(F)cc3)CC2)cc1 | inconclusive: 89.1 µM [inhibitor, single point] |  |  |
| O=C(Nc1ccc(Cl)cc1)N1CCN(CCCn2nc3n(c2=O)CCCC3)CC1 |  | inactive: -6.23% |  |
| COc1ccc(NC(=O)N2c3ccccc3CC2c2nc(C3CC3)no2)c(OC)c1 (centres undefined) | inconclusive: 79.4 µM [inhibitor, single point] |  |  |
| CCc1nc(-c2c3n(c(=O)n(Cc4cccc(Br)c4)c2=O)CCCC3)no1 | inconclusive: 39.8 µM [inhibitor, partial curve, poor fit] |  |  |
| CNC(=O)c1cc(C2CC2)nc2c1c(C1CCCN1C(=O)c1ccc(Cl)nc1)nn2C (centres undefined) |  | inactive: -0.0582% |  |
| O=C1N(C2CCCCC2)C[C@H]2CN(Cc3ncc[nH]3)CCN12 |  |  | inactive [at 172 µM] |
| COc1ccc(NC2CN(C(=O)OC(C)(C)C)C2)cc1 | inactive |  |  |
| O=C1CCCCCN1C1CCN(Cc2ccc(OC(F)(F)F)cc2)CC1 | inconclusive: 31.6 µM [inhibitor, full curve] |  |  |
| CNC(=O)c1cc(C2CC2)nc2onc(C3CCCN3C(=O)NC3CCCC3)c12 (centres undefined) |  |  | inactive |
| NCCCC(=O)N1CCCC2(Cc3ccccc3CN2C(=O)Cc2cccc(Cl)c2)C1 (centres undefined) | inconclusive: 79.4 µM [inhibitor, partial curve, poor fit] |  |  |
| CCCOc1nccnc1NC1CCN(C(=O)NCc2ccco2)CC1 | inconclusive: 7.08 µM [inhibitor, full curve, poor fit] |  |  |
| Cc1ccc2nc([C@H]3CCN(C(C)C)C3)[nH]c2c1 | inconclusive: 126 µM [inhibitor, partial curve, poor fit] |  |  |
| CC(C)NC(=O)NC[C@H]1O[C@H](Cc2cc(-c3ccc(F)cc3)on2)CC[C@@H]1O | inconclusive: 100 µM [inhibitor, partial curve, poor fit] |  |  |

| SMILES | Potency | activity change, negative = cytotoxicity | outcome |
| --- | --- | --- | --- |
| CO[C@H]1C(=O)N(C2CCN(C(=O)Nc3ccc4c(c3)OCCO4)CC2)[C@H]1c1ccncc1 |  | inactive: -0.567% |  |
| COc1ccc(-c2cc(C(=O)NCCc3ccccc3F)c3cnn(C)c3n2)cc1 | active: 31.6 µM |  |  |
| c1ccc(-c2nc(C3CCOCC3)nn2CC2COCCO2)cc1 (centres undefined) |  | inactive: 4.62% |  |
| O=[S+]1([O-])NCC2(CCCN(Cc3ccccc3)C2)Nc2ccccc21 (centres undefined) | inconclusive: 79.4 µM [inhibitor, partial curve] |  |  |
| O=C1CN(C(=O)c2ccc(F)cc2)CC(O)CN1Cc1ccc(Cl)cc1 (centres undefined) |  | inactive: -24.9% |  |
| Cc1ccc(C2=NC3(CCN(C(=O)Cc4ccc(F)cc4)CC3)ON2)cc1 | inconclusive: 89.1 µM [inhibitor, single point] |  |  |
| c1ccc2sc(CCCn3cc(-c4cncnc4)nn3)nc2c1 |  | inactive: 4.07% |  |
| COc1ccc(-c2cc(N3CCC(NC(=O)CCc4ccccc4OC)CC3)n[nH]2)cc1 | inconclusive: 50.1 µM [inhibitor, partial curve, poor fit] |  |  |
| CCOc1ccccc1CNC(=O)[C@H]1CCC[C@H]1NC(=O)c1ccc(OC)cc1 |  | inactive: -3.39% |  |
| Cc1ccc(CN2C(=O)OC(c3cccc(NC(=O)C(C)C)c3)C2C(=O)NCc2ccco2)cc1 (centres undefined) | inconclusive: 89.1 µM [inhibitor, single point] |  |  |
| CCOc1ccccc1CNC(=O)c1ccc2c(c1)CC(=O)N2C | inconclusive: 50.1 µM [inhibitor, partial curve, poor fit] |  |  |
| COc1ccc(CN2CCn3c(nnc3-c3ccc(Cl)cc3)C2)cc1 | inconclusive: 31.6 µM [inhibitor, partial curve] |  |  |
| CCn1nccc1C(=O)N1CCCC1c1nc(CCOc2cccc(C)c2)no1 (centres undefined) | inconclusive: 39.8 µM [inhibitor, partial curve, poor fit] |  |  |
| N#Cc1cccnc1-c1ccc(C(=O)N2CCC(NC(=O)c3ccccc3)CC2)cc1 | inconclusive: 89.1 µM [inhibitor, single point] |  |  |
| CC(C)(C)OCC(O)CN1CCC(=O)N(CC2CC2)Cc2ccccc21 (centres undefined) | inconclusive: 89.1 µM [inhibitor, single point] |  |  |
| O=C(c1ccsc1)N1CC[C@@H]2COCCN(Cc3ccccc3)[C@@H]2C1 |  | inactive: -8.44% |  |
| Clc1ccc(-c2cnc([C@@H]3COCCN3Cc3ccccc3)[nH]2)s1 | active: 100 µM |  |  |
| COc1ccccc1Nc1ccnc(N2CCC(C(=O)NC3CC3)CC2)n1 |  | inactive: -19.8% |  |
| O=C1N(CC2CC2)CCOC12CCN([S+](=O)([O-])c1ccc(C(F)(F)F)cc1)CC2 | inconclusive: 39.8 µM [inhibitor, partial curve, poor fit] |  |  |
| Cc1nn(-c2cccc(Br)c2)c(C)c1[C@@H]1C=C[C@@H](NC(=O)c2cccs2)C1 | inconclusive: 31.6 µM [inhibitor, partial curve, poor fit] |  |  |
| Cc1nc(C(F)(F)F)nc(N2CCN(C3CCCC3)C(CCO)C2)c1C (centres undefined) |  | inactive: -4.36% |  |
| CN1C[C@@H](NC(=O)Nc2ccc(C(F)(F)F)cc2)C[C@H]1c1nc(-c2ccc(Cl)cc2)no1 | active: 20 µM |  |  |
| COC(=O)CNC(=O)C1CCN(c2nccc(Nc3ccccc3OC)n2)CC1 |  | inactive: -19.2% |  |

| SMILES | Potency | activity change, negative = cytotoxicity | outcome |
| --- | --- | --- | --- |
| O=C1NCCCCCCN(Cc2ccncc2)[C@@H]2CN(Cc3ccccn3)CC[C@H]12 |  | inactive: -0.515% |  |
| CCOc1ccc(-c2cc3c(=O)n(CCNC(=O)C4(c5ccccc5)CC4)ccn3n2)cc1 |  |  | inactive |
| COC(=O)c1ccc2c(c1)nc1n2[C@@H](CNS(=O)(=O)c2ccccc2)COC1 |  | inactive: -24.2% [at 172 µM] |  |
| COc1ccc(F)cc1-c1ccc(CN2CCC(NC(=O)c3ccccc3C)C2)cc1 (centres undefined) | inconclusive: 50.1 µM [inhibitor, partial curve, poor fit] |  |  |
| O=c1ncn(CC2CC2)c2ccc(N3CCC(c4ccccc4)CC3)nc12 | inconclusive: 112 µM [inhibitor, partial curve, poor fit] |  |  |
| CN1CCN(c2ccc3ncc(Nc4ccc5c(c4)OCCO5)n3n2)CC1 | inconclusive: 112 µM [inhibitor, partial curve] |  |  |
| O=C(c1ccc(F)cc1)N1CCCC1C(=O)N1CCCC1c1nc2ccncc2[nH]1 (centres undefined) |  | inactive: -6.41% |  |
| O=C1NCC2(CCCN(C(=O)CCc3nc4ccccc4[nH]c3=O)C2)O1 (centres undefined) |  | inactive: -24% |  |
| CN(C)c1cccc(-c2cnc(NC(=O)C3(c4ccccc4)CC3)c3c2CCO3)c1 | inconclusive: 89.1 µM [inhibitor, partial curve, poor fit] |  |  |
| COc1ccc(C)cc1NC(=O)Cn1nc2n(c1=O)CCCCC2 |  | inactive: 2.22% |  |
| CCS[C@H]1CCN2C(=O)c3cc(-c4ccc(F)cc4F)ccc3NC(=O)[C@H]12 | active: 56.2 µM |  |  |
| COc1ccc(CC(=O)NC2CCN(Cc3cccc(-c4cccs4)c3)CC2)cc1 | inactive |  |  |
| CNC(=O)NCC(=O)N1CCCCCNC(=O)CC1c1ccccc1 (centres undefined) |  |  | inactive |
| Cc1nn(Cc2ccccc2)c(C)c1[C@@H]1C=C[C@@H](NC(=O)C2CCCCC2)C1 | inconclusive: 35.5 µM [inhibitor, partial curve, poor fit] |  |  |
| O=C(c1ccccc1F)N1CCC2(CC1)N=C(c1ccc(Cl)cc1)NO2 | inconclusive: 56.2 µM [inhibitor, partial curve, poor fit] |  |  |
| OC1(c2csc(CN3CCN(c4ccccn4)CC3)n2)CCN(Cc2ccc(F)cc2)CC1 | inconclusive: 50.1 µM [inhibitor, partial curve, poor fit] |  |  |
| COCc1cc(CC2(NCCC(C)C)COC2)no1 |  | inactive: 1.21% [at 230 µM] |  |
| O=C1Nc2ccccc2OCC12CCN(Cc1ccc(OC(F)(F)F)cc1)CC2 | inconclusive: 17.8 µM [inhibitor, full curve] |  |  |
| CCc1cc(N2CCCC(C(=O)c3sccc3C)C2)ncn1 (centres undefined) | active: 31.6 µM |  |  |
| CCCc1ccc2oc(C(=O)N(CC)Cc3ccncc3)c(C)c2c1 | active: 25.1 µM |  |  |
| CCCS(=O)(=O)N1CCC2(CC1)CCC(O)(CN1CCCC1)CC2 | inconclusive: 79.4 µM [inhibitor, partial curve, poor fit] |  |  |
| O=C1Nc2ccccc2CNC12CCN(Cc1ccc(C(F)(F)F)cc1)CC2 | inconclusive: 31.6 µM [inhibitor, partial curve] |  |  |
| Cc1noc(C)c1-c1cc2cc(CN(C)C)oc2c(NCc2ccccc2)n1 | inconclusive: 112 µM [inhibitor, partial curve, poor fit] |  |  |
